Our source for the cell viability values is the supplement of paper PMC9588766.

Each structure is given as a SMILES string. Where a name gives a salt, the structure may show the parent alone. ± gives the standard deviation of the averaged measurements. The full ranking holds about 2,000 compounds; the median of “cell viability relative to DMSO control (compound alone)” is about 0.98, and the lowest 2% start at about 0.23. The list shows a part of the results.

For the test, the system named is PDC-DUC18828. The experiment in a line: cell viability relative to DMSO control (compound alone) (fraction); PDC-DUC18828 is a patient-derived cholangiocarcinoma cell line; higher = less growth inhibition. Conditions: 1 µM; 72 h. As to the method: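 Selleck Bioactive library screen in the patient-derived FGFR2-G3BP2 fusion-positive ICC cell line PDC-DUC18828 (500 cells/well). Each compound was tested at 1 uM alone, in triplicate, for 72 h. Viability was read by CellTiter-Glo and normalised to plate DMSO controls.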
In turn, `Cc1cnc(C(=O)O)c[n+]1[O-]` [Acipimox] yielded a cell viability of 0.917 ± 0.019.

For `O=C(c1cncc(Br)c1)N1CCC(N2CCCC2)CC1`, the cell viability is 0.94 ± 0.095.

Take `O=C(Nc1ccc([N+](=O)[O-])cc1O)Nc1ccccc1Br`: the cell viability was 0.559 ± 0.035.

For the compound `O=C(O)c1cc(I)ccc1NC(=O)[C@H](Cc1ccccc1)NCc1ccccc1`, the cell viability came out at 1.04 ± 0.061.

In turn, `CCN1CCN(Cc2ccc(Nc3ncc(F)c(-c4cc(F)c5nc(C)n(C(C)C)c5c4)n3)nc2)CC1` gave a cell viability of 0.684 ± 0.012.

The compound `COCCc1ccc(OCC(O)CNC(C)C)cc1` (stereo unspecified) [Metoprolol Tartrate] returned a cell viability of 0.895 ± 0.066.

In turn, `COc1ccc(CN2CCN(C(c3ccc(F)cc3)c3ccc(F)cc3)CC2)c(OC)c1OC` [Lomerizine HCl] came in with a cell viability of 1.02 ± 0.055.

In turn, `CC(C)Cc1ccc(C(C)C(=O)O)cc1` (stereo unspecified) [Ibuprofen] had a cell viability of 1.08 ± 0.034.

On to `Nc1ncnc2c1C(=O)N(c1ccc([C@H]3CC[C@H](CC(=O)O)CC3)cc1)CCO2`, for which the cell viability worked out at 0.9737 ± 0.0084.

`CN1CCC(NC(=O)c2cc(-c3c(O)cc(O)cc3Oc3ccc([N+](=O)[O-])cc3)on2)CC1` showed a cell viability of 0.343 ± 0.029.

`Cc1cnc(C(=O)NCCc2ccc(S(=O)(=O)NC(=O)NC3CCCCC3)cc2)cn1` [Glipizide]: the cell viability was found to be 1.08 ± 0.046.

As for `Cc1cc(-c2ncc(CC(=O)Nc3ccc(-c4cnccn4)cn3)cc2C)ccn1`, the cell viability stood at 1.01 ± 0.018.

As for `O=C1[C@H](CC[C@H](O)c2ccc(F)cc2)[C@@H](c2ccc(O)cc2)N1c1ccc(F)cc1` [Ezetimibe], the cell viability is 1.07 ± 0.029.

The compound `c1cc(-c2cnn3cc(-c4ccc(OCCN5CCCCC5)cc4)cnc23)ccn1` [Dorsomorphin (Compound C)] came in with a cell viability of 0.972 ± 0.05.

`COc1ncc(-c2ccc3nccc(-c4ccnnc4)c3c2)cc1NS(=O)(=O)c1ccc(F)cc1F` returned a cell viability of 0.272 ± 0.0043.

`COc1cc2ncnc(Oc3ccc(CC(=O)Nc4cnn(C(C)C)c4)cc3)c2cc1OC` displayed a cell viability of 0.913 ± 0.048.

In the case of `CN1CCC(=C2c3ccccc3CCc3sccc32)CC1` [Pizotifen Malate], the cell viability is 0.995 ± 0.073.

Compound `CCN(CC)CCOc1ccc(C(=C(Cl)c2ccccc2)c2ccccc2)cc1` [Clomifene citrate] displayed a cell viability of 0.968 ± 0.021.

As to `CCCCCOC(=O)Nc1nc(=O)n([C@@H]2O[C@H](C)[C@@H](O)[C@H]2O)cc1F` [Capecitabine], the cell viability is 1.06 ± 0.022.

The compound `CCCCNc1ccc(C(=O)OCCN(C)C)cc1` [Tetracaine HCl] showed a cell viability of 0.971 ± 0.02.

Compound `O=C1CCc2ccc(OCCCCN3CCN(c4cccc(Cl)c4Cl)CC3)cc2N1` [Aripiprazole] showed a cell viability of 1.09 ± 0.021.

As for `COc1c2ccoc2cc2oc(=O)ccc12` [Bergapten], the cell viability turned out to be 0.955 ± 0.026.

Turning to `CCCCCCCCCCCC1=C(O)C(=O)C=C(O)C1=O` [Embelin], the cell viability amounted to 0.92 ± 0.034.

On to `CNCc1cc(-c2ccccc2F)n(S(=O)(=O)c2cccnc2)c1`, for which the cell viability stood at 1.04 ± 0.07.

For `Cc1ccccc1C(OCCN(C)C)c1ccccc1` (stereo unspecified) [Orphenadrine Citrate], the cell viability stood at 0.971 ± 0.063.

As for `Cc1nn(C)c2c1C(c1ccc(C(F)(F)F)cc1)C(C#N)=C(N)O2` (stereo unspecified), the cell viability turned out to be 0.942 ± 0.0098.

As to `O=C1C(O)=C([C@H]2CC[C@H](c3ccc(Cl)cc3)CC2)C(=O)c2ccccc21` [Atovaquone], the cell viability stood at 1.05 ± 0.038.

With `OC[C@H]1O[C@@H](c2ccc(Cl)c(Cc3ccc(O[C@H]4CCOC4)cc3)c2)[C@H](O)[C@@H](O)[C@@H]1O`, the cell viability turned out to be 1.03 ± 0.025.

Compound `Cc1nc(C#Cc2ccnc(Cl)c2)c(C)n1-c1ccc(OC(F)(F)F)cc1` came in with a cell viability of 0.906 ± 0.062.

For the compound `CN(C)c1cccc(-c2c3c(=O)n(-c4ccccc4Cl)[nH]c3cc(=O)n2C)c1`, the cell viability worked out at 0.952 ± 0.033.

`COC(=O)C1=C(C)NC(C)=C(C(=O)OCCN(C)Cc2ccccc2)C1c1cccc([N+](=O)[O-])c1` (stereo unspecified) [Nicardipine HCl] showed a cell viability of 0.996 ± 0.025.

`COCCOc1ccc2c(c1)ncn2-c1ccc2cccc(N3CCC(N)CC3)c2n1` came in with a cell viability of 1.09 ± 0.025.

Compound `Cc1cc(Nc2cc(N3CCN(C)CC3)nc(/C=C/c3ccccc3)n2)n[nH]1` registered a cell viability of 0.459 ± 0.034.

In turn, `Cc1cc(-c2ccc(CC(=O)Nc3ccc(-c4cccnc4)cc3)cc2)ccn1` yielded a cell viability of 1.03 ± 0.012.

As to `COc1ccc(C2CC(c3ccccc3)=NN2c2ccc(S(N)(=O)=O)cc2)cc1` (stereo unspecified), the cell viability is 0.991 ± 0.05.

`Oc1cc(O)c(Cl)cn1` [Gimeracil] showed a cell viability of 1 ± 0.026.

For `COc1ccc2cc(OCC3(C(=O)O)CN(C(=O)c4ccc(F)cc4)C3)ccc2c1`, the cell viability was determined as 0.954 ± 0.039.

As to `COC(=O)C1=C(C)NC(C)=C(C(=O)OCC(C)C)C1c1ccccc1[N+](=O)[O-]` (stereo unspecified) [Nisoldipine], the cell viability amounted to 1.06 ± 0.064.

The compound `CC1(C)CNc2cc(NC(=O)c3cccnc3NCc3ccncc3)ccc21` [Motesanib Diphosphate (AMG-706)] gave a cell viability of 0.976 ± 0.064.

As for `CC[C@@H]1/C=C(\C)C[C@H](C)C[C@H](OC)[C@H]2O[C@@](O)(C(=O)C(=O)N3CCCC[C@H]3C(=O)O[C@H](/C(C)=C/[C@@H]3CC[C@@H](O)[C@H](OC)C3)[C@H](C)[C@@H](O)CC1=O)[C@H](C)C[C@@H]2OC` [Ascomycin (FK520)], the cell viability is 0.979 ± 0.014.

Take `CC1=C(/C=C/C(C)=C/C=C/C(C)=C\C(=O)O)C(C)(C)CCC1` [Isotretinoin]: the cell viability was found to be 0.943 ± 0.042.

The compound `CC/C(=C(/CC)c1ccc(O)cc1)c1ccc(O)cc1` [Diethylstilbestrol] returned a cell viability of 1.01 ± 0.033.

Compound `NC(N)=Nc1nc(CSCC/C(N)=N/S(N)(=O)=O)cs1` [Famotidine] returned a cell viability of 0.977 ± 0.039.

`C/C(=C\c1ccc(C(=O)O)cc1)c1ccc2c(c1)C(C)(C)CCC2(C)C` [TTNPB (Arotinoid Acid)] had a cell viability of 0.863 ± 0.06.

For the compound `COc1ccc(-c2ccc3c(N4CCOCC4)nc(N4C[C@@H](C)O[C@@H](C)C4)nc3n2)cc1CO`, the cell viability stood at 0.934 ± 0.0096.

For the compound `OC(CN1CCN(c2cccc(Cl)c2)CC1)C(c1ccccc1)c1ccccc1` (stereo unspecified), the cell viability came to 0.96 ± 0.028.

`COc1cc(OC)c(/C=C/S(=O)(=O)Cc2ccc(OC)c(NCC(=O)O)c2)c(OC)c1`: the cell viability came to 0.268 ± 0.02.

The compound `CN(C)[C@@H]1C(O)=C(C(N)=O)C(=O)[C@@]2(O)C(O)=C3C(=O)c4c(O)cccc4[C@@](C)(O)[C@H]3[C@H](O)[C@@H]12` [Oxytetracycline (Terramycin)] yielded a cell viability of 0.931 ± 0.012.

In turn, `CN(C)[C@@H]1C(O)=C(C(N)=O)C(=O)[C@@]2(O)C(O)=C3C(=O)c4c(O)cccc4[C@@](C)(O)[C@H]3[C@H](O)[C@@H]12` [Oxytetracycline Dihydrate] registered a cell viability of 1.07 ± 0.042.

In turn, `CCCCCCCc1ccc(CCc2cccc(O)c2C(=O)O)cc1` came in with a cell viability of 0.936 ± 0.033.

For the compound `Cc1noc(C)c1-c1ccc(-c2cc(C(N)=O)c(NC(N)=O)s2)c(O[C@H]2CCNC2)c1`, the cell viability is 0.97 ± 0.038.
